# The other results are listed elsewhere or left out.
# Test system: PfSIP2 AP2 domain 1 (GST-tagged)
# Experiment: gcPBM binding intensity (ln(normalized median fluorescence intensity)); higher = stronger DNA binding
# In short: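 GST-fused DNA-binding domains of P. falciparum, expressed in E. coli, were applied at about 25 μg on average for 1 h to an Agilent 4 × 180k array of primer-extended double-stranded 36-bp intergenic genomic probes and negative controls. Binding intensity is the highest Masliner-normalised natural-log median intensity across replicate spots of either probe orientation, measured with Alexa488 anti-GST antibody and a 488 nm scan.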
row,Sequence,gcPBM binding intensity (ln)
1,TTCACTCCATATTATACACACACACTAATGAAAAAA [CACACA_site8991],7.44
2,ATAATATTTATAAATTGTACTAATGTTCAATAATTA [XGTACX_site7284],6.92
3,AAATGAAAAATAAGGAAAAAAAAAAAAAAAAAAAAA [CACACA_negctrl_site1715],6.88
4,TAAAATATTTCAAAGGTGCAATGATAATTTAAGACG [GTGCAC_site9609],10.4
5,ATATTGACAGGAAAAATTTTCTTTGAATCTTTAAAA [CACACA_negctrl_site1191],6.79
6,TATGTTATATTGGACACACACAATAAACATTATGTA [CACACA_site1657],7
7,ATATATATATATAAGCGTACGCGTAGTTAAATTAAT [XGTACX_site7693],9.27
8,ACAAAAAAAATAAGCACACATATATATATATATATA [CACACA_site816],9.39
9,TACATGATAAGATGTAGTACATAAAAGAATAAATTA [XGTACX_site787],6.95
10,TTTTCAAAAATATATACACACATGCATATTACGGTG [CACACA_site775],6.98
11,ACGATAACATTTTTACGTACATATATTTTCACGGAG [XGTACX_site8764],7.24
12,TATTCAATACTTAATGCACACAATAAAAAAAATATG [CACACA_site2467],8.1
13,AAAAAAATAACAAAAGTGCATTTTTATGAGTTATCT,9.41
14,ATATATAATTAATAAAGTACATTAATTATTTCTTTT [XGTACX_site3034],6.77
15,AGATACAAGCACTATAGTACACATACTAAAAATATA [XGTACX_site5849],7.3
16,TATAATTAAAATTTGTGTACGTATGACAAAACATTT [XGTACX_site7072],6.85
17,TTTCCTTACCCTTTCCTGGTGTAGAAATTATACTCT [TGCATGCA_negctrl_site116],7.12
18,TTAAAATTTTTCAAAAGTACATAAATAATATATATT [XGTACX_site4694],7.21
19,AATATATTATATATATGTACATAATGTGTAATACCT [XGTACX_site2845],7.22

row,Sequence,gcPBM binding intensity (ln)
1,TTTATTTGTTCATGCGTGCACTTGATAACAATGTAC [GTGCAC_site9561],9.9
2,GGAAAAAAATATAAAAGTACTTTTTATTTATTTTAT [XGTACX_site7418],6.96
3,TTTTTTTTTGTTAAAGTGCATATATTAAATTTTCCT [GTGCAC_site9677],7.95
4,AAAAAAAATTCATATTGTACTTTTAAATTAAAGAAA [XGTACX_site4521],6.78
5,AGTGAATATCTAAAATGTACATAAATAAATAAATAA [XGTACX_site8293],7.32
6,CGTTATATCAAAGGAGTGCATTATGAATACGTTTTA [GTGCAC_site9837],8.98
7,AAAAAAAAAAAACATACACACATACATACAGATATA [CACACA_site4681],6.96
8,TTTCACTACACAAATACACACAAAAATATATGTGCA [CACACA_site2632],7.08
9,TTCTATTTTATATGTGCACACATATACACCCACAAA [CACACA_site1130],9.37
10,TTCTTTTTGAAACACACACACACAAGAAAATATATA [CACACA_site3110],7.29
11,AAATTTTTTGTTCAATGTACTTTTTTATTATATTTT [XGTACX_site5298],7.08
12,ATTTTTTAAATTTAAACACACATTTTGTATATGTTT [CACACA_site1654],7.02
13,GATATATAATATAATACACACATTTTATGAATGTAA [CACACA_site24],6.87
14,TCTACTATTATATATTGTACAAATGATACTTATATT [XGTACX_site1819],7.04
15,TAAAATTTTTGTTTTTGTACGAAACATCAATTTTAC [XGTACX_site4963],6.95
16,TTCTATATATTTGGAAGTACATTATATTTATTTTTT [XGTACX_site3172],7.17
17,CATATATAAATATGTACACACATATGTATGATCTCA [CACACA_site3868],7.02
18,TTATTTATAAGTAATATTATATATTCTTTTAATACA [CACACA_negctrl_site471],6.59
19,AGATCTATTATTTTTTGTACTTATATATAAACTTAA [XGTACX_site1737],7.06

row,Sequence,gcPBM binding intensity (ln)
1,ATAGGCAAAAAGTGTACACATTCATTTATATAAATA [CACACA_site4480],7.6
2,AATGGTATAAACAATACACACATAATATAAATATTG [CACACA_site6878],6.75
3,TTATATATAAATGTGTGTACTTATAAAATAATCATT [XGTACX_site5370],7.23
4,AAAAAAATTACGCAAGTGCATATAATTTAACAAAAA,8.04
5,ATATATATATATCACGCACACACGAATTTTAAATAT [CACACA_site3131],9.06
6,ATCGCGAAGTAGCATTCACACACAGCAAAATATATA [CACACA_site9162],6.87
7,AACATTTATATAAAAGAACACACATATAAAATATTA [CACACA_site9199],6.94
8,AATGGTAATCCACATACACACACACCGACACATATA [CACACA_site8876],7.22
9,AAATAACAAAAGAAGGTGCTCATAAAAATTCATACA [GTGCAC_site9864],8.23
10,CATTTACCCTTATTAACACACAAAATAAAATACGCT [CACACA_site7249],7.14
11,AACAATAGTAAAAATACACACATTAAACTTCATTTC [CACACA_site2126],6.7
12,ATACAATGATATATACATATATATATATATATATAT [TGCATGCA_negctrl_site359],9.86
13,AAATTATAAAAAAAAAAAAAAAAAAAAAAAAAAAAA [XGTACX_negctrl_site501],7.19
14,AAAAAAAAAAAAAAAAAAAAAAAAAAAAAAAAAAAA [CACACA_negctrl_site204],9.12
15,GAAAGGACAAGAATAGTGCACATGCAATGTTATTTT [GTGCAC_site9985],9.8
16,ACAAAATTTTTAAGAACACACAAAAATGTACTATCG [CACACA_site2550],6.73
17,AATCATGCTCCGGAAAGTACATAAATAAATAAATAA [XGTACX_site1690],7.18
18,AAAAAAAAAAAACATACACACATACATACATATATA [CACACA_site8222],7.06
19,CACATACACATACAAACACACATTATGTATATATAT [CACACA_site1599],7.44
